Sequences with one replicate were seen in a single cluster, so their values are uncertain.
System: ATP
Assay: switch fluorescence ratio, 500 uM ATP over buffer (Cy3 cluster intensity, sum of 5 cycles each) (fold (ratio)); higher = stronger signal-on switching upon ATP binding; sequences stand for … in TCGTCGGCAGCGTCAGATGTGTATAAGAGACAGTTTTTTTTTTTTTTTTTTTTTTTTT…TC
Details: aptamer strand: ATP DNA aptamer (quencher-CACCTGGGGGAGTATTGCGGAGGAAGG + anchor), 100 nM annealed; ATP concentration: 500 uM; one replicate
How it was run: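 Cy3-labelled switching-strand clusters on a modified Illumina MiSeq flow-cell were annealed to 100 nM quencher-labelled ATP aptamer and imaged first in selection buffer, then after 15 min with 500 uM ATP at 22 °C. NaOH stripping and re-annealing separated each of five buffer/ATP cycles, and clusters outside 100-1000 RFU were excluded. The fluorescence ratio sums target-cycle Cy3 intensity over buffer-cycle Cy3 intensity per cluster and averages it per switch-domain sequence.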
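Further: ATP exposure 15 min at 22 °C before imaging.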

Row | Sequence | switch fluorescence ratio
1 | GAATGTCTGT | 1.03
2 | TTGCTCGGCG | 0.968
3 | GGTATCTGTG | 0.982
4 | CGCCGACCTG | 0.98
5 | CGCGGGGTAT | 0.999
6 | GATTGATGAC | 1.02
7 | TTTTCGATAT | 1.03
8 | GAACGCGGTC | 1.05
9 | CATGGTTCCT | 1
10 | CTTCAACGTG | 0.977
11 | TAATTGGCTA | 0.967
12 | AACGGTCTAT | 1.02
13 | GAAACACATA | 0.998
14 | TCAGGCGCCA | 0.966
15 | TGCGTGTCGT | 1.02
16 | TTGGATAGCC | 0.983
17 | ATTATGTAC | 1.09
18 | GGGCTTGCTA | 1.02
19 | CACGGGCTAG | 1.01
20 | AGGATGTCAT | 0.95
21 | AATCTGGACT | 0.987
22 | GATATACGAA | 1.02
23 | GAAAATCAAA | 0.935
24 | CTAGATTGTA | 0.993
25 | CTTCCGGGTG | 1.49
26 | CTTAGTAAAC | 1.1

Row | Sequence | switch fluorescence ratio
27 | TACAATCCGC | 1.09
28 | TGCTGCGCCG | 1.02
29 | TCCGTATTCT | 1.04
30 | TTATTGAGC | 0.994
31 | ATAGCTCACT | 0.985
32 | TGTATCATGC | 1
33 | TCTACTGTAA | 1.21
34 | CCCTGTGACC | 1.02
35 | TGAAAAGTGC | 1.07
36 | TAGATCAGCA | 1.02
37 | GGAGACACGC | 1.07
38 | TGGATTCCTG | 0.951
39 | TGTCTTATGG | 1.01
40 | ATGCTTTTT | 1
41 | GCCTGAGGTG | 1.46
42 | GATCCCCACT | 1.07
43 | AACAAAATA | 1.02
44 | CCATGAATCA | 1.03
45 | GGGCTTGAGC | 1.01
46 | GTAGTGGTTT | 0.96
47 | AATAGTTATG | 0.993
48 | CGAGAACAGT | 0.967
49 | AACTAGTACG | 0.989
50 | CTTCGACTTG | 1.02
51 | TACGGGATCT | 1.02
52 | TTCCGCTGGT | 1.22

Row | Sequence | switch fluorescence ratio
53 | AGGTTTATGA | 0.974
54 | TGCTTATGAC | 1.04
55 | TTCATATAGC | 1.02
56 | ATAACCTGTG | 1.03
57 | CCGACCTCAT | 3.01
58 | AGAGCAGCCG | 0.983
59 | AGTGGTATCT | 1
60 | CGCCCGCGT | 3.09
61 | TTTGTGATGA | 1.03
62 | CTCTCCTTTA | 1.06
63 | GAACGCGGCA | 1.1
64 | AGCGACTTTG | 1.04
65 | TTTAGCGTCG | 0.983
66 | CAAGGCGGTG | 1.01
67 | GGGAAGTGTT | 1.01
68 | GGTAAGGGGC | 1.02
69 | AGGCTGTAGC | 0.996
70 | TACAGGTAAT | 1.02
71 | GGTTACTAGT | 0.974
72 | CTATAGAGGG | 0.991
73 | GGAGGCACGG | 0.959
74 | ACTCACCACA | 1.34
75 | GGTTCTATTC | 1.01
76 | TAACGTCGGG | 0.995
77 | TTCATTCGG | 0.989
78 | TAACAGCGGC | 0.997

Row | Sequence | switch fluorescence ratio
79 | AACGACGTGC | 1.13
80 | AGAAACTGCG | 1.04
81 | CGGCCTTTAC | 1.87
82 | GGCTGAGGAT | 0.959
83 | AAAAATTAGG | 1.01
84 | CCCTTGCT | 1.07
85 | TAAGGCGAAG | 1.05
86 | AAGTATGGCC | 0.93
87 | GGAGGCCTA | 1.02
88 | TTAAAGTATG | 1.16
89 | ATCAGCGGCG | 0.967
90 | CGTGGGTGCG | 1
91 | AGAAGATCGC | 0.952
92 | ATTCAAGCCA | 1.04
93 | CGAGGGCGGC | 1.01
94 | TCTGTGTCGG | 1.04
95 | AAACTACTCC | 1.54
96 | GTCATAAGAG | 1.05
97 | CTTATTAGTA | 0.961
98 | AGAGTGTACA | 0.994
99 | CCGTTAACAC | 3.48
100 | TCAAGGACTG | 1.04
101 | AGTTAGTAGC | 0.963
102 | AATAGGAGGT | 1
103 | ACGTCGACGG | 0.997
104 | TGTAGTTTCG | 0.959

Row | Sequence | switch fluorescence ratio
105 | CCTCGGACTG | 1.15
106 | GGCGTATCT | 0.966
107 | TAACGGATGC | 0.975
108 | GGCACGCGGA | 1.02
109 | CAATTGCCTG | 0.981
110 | TTCGATAAGT | 1.03
111 | TGAAGGCA | 1.06
112 | TTCTATCTTT | 0.973
113 | TCAACATTTT | 1.05
114 | AAAGTACGCA | 1.21
115 | CTTGCGATAA | 2.9
116 | CGTTCCGTTG | 1.05
117 | CAATGGACTA | 0.977
118 | TAACGGAGCA | 1.92
119 | TCTGGACTAC | 1.58
120 | GCTCTTTCGG | 1.02
121 | CACTAACTCG | 1.1
122 | GGGATGGAGT | 0.994
123 | CAGGCACGAC | 1.05
124 | ACACGCACAC | 1.87
125 | CCCGGGCAAC | 1.41
126 | GGATGCGGTC | 0.985
127 | GCCCAGACGT | 1.03
128 | GATTGGCTAC | 1.09
129 | CATAAAAATT | 0.999
130 | ACGGGATGTT | 1.02

Row | Sequence | switch fluorescence ratio
131 | GTGTTCGTAT | 0.97
132 | GGGCGCCGA | 0.936
133 | TGGTGGTCCT | 1
134 | AAGGTTTGTC | 1.03
135 | TTGGATTATA | 1.01
136 | CATCTATCGA | 0.98
137 | CTGTTGTAGC | 0.98
138 | ATTATCATAC | 1.02
139 | GGACTGCCCC | 1.1
140 | CGTATGTAG | 0.964
141 | GTGACTCGA | 0.961
142 | ATGCGAGGGT | 1.01
143 | TGGCCTGGTT | 1.05
144 | CTTGGTAGCT | 1.03
145 | TTCCATTGAT | 0.98
146 | CCGGGAGGCC | 1.09
147 | CAGTACTTT | 1.02
148 | CTACTGCTGA | 0.978
149 | CTTTTCCTT | 1.15
150 | CGTAATGGAG | 1.04
151 | GGTGGTATCC | 1.04
152 | GACTGGATTA | 1.03
153 | TATCAAGGGT | 0.965
154 | TTGGTCTTAT | 0.984
155 | AGGAACCAGG | 1.65
156 | GTCGGAGAGT | 0.977

Row | Sequence | switch fluorescence ratio
157 | CAAGCTCGTC | 1.03
158 | AACAGCTTCT | 0.974
159 | TTTATCCGGA | 1.01
160 | TATGTCAGTG | 1.02
161 | TGAGGAAGTG | 1
162 | AAGTTGGCTC | 0.999
163 | AGGGTAAGTT | 0.972
164 | TGAAGAGTAC | 1.01
165 | TTCGATCATT | 1.02
166 | TGGGCATTCC | 1.13
167 | ATTTTCGTAG | 0.941
168 | GACAAACAGT | 1.07
169 | AAGGATTTTA | 0.96
170 | ACTTATATGC | 0.991
171 | AATGCGGGCC | 1.01
172 | ACAGGTTGGC | 0.952
173 | GCTGATGATC | 1.02
174 | GGGAAGCACG | 1
175 | TCGTGGTCAG | 1.02
176 | TTGGTTCGAA | 1.06
177 | GAAAGTACGC | 1.19
178 | CTTAACGCA | 1.18
179 | TCTTCGGACA | 1.17
180 | AAAGTCGGCC | 0.972
181 | GAAGCACAG | 1.15
182 | GGCAGTGGAG | 0.997

Row | Sequence | switch fluorescence ratio
183 | CAAACAGTGT | 0.987
184 | TATGAATGCA | 1.04
185 | GTTTTATTGG | 1.01
186 | CGTTATTATT | 1.01
187 | ACAGTTTTTC | 0.949
188 | GCACGTGCGG | 0.961
189 | CAGGTCGATC | 1
190 | GCGTTCAGTA | 0.997
191 | TTAATCCAGA | 0.977
192 | GTGAAGAGAC | 0.982
193 | TTTGTGTTAT | 0.964
194 | AAAATAGGTC | 1.04
195 | GCCATATTGT | 1
196 | GACGGTTCAA | 1.02
197 | TAGTATCTAC | 1.04
198 | GAATGACT | 1
199 | CATTCGGCAG | 1.13
200 | AGCCCTTACG | 1.06
201 | AAACAAAGTC | 1.06

Reference: the supplement of paper PMC10126150
